# Data taken from PubChem BioAssay AID1631 (National Center for Advancing Translational Sciences (NCATS), 2009).
# Screen size: about 260,000 compounds; about 890 (0.34%) were called active. This list was built around the results that the source calls inconclusive (neither active nor inactive); the mix of calls is not that of the screen. Calls follow the shape of the dose curve; as a rule, active = well fitted activation curve with a large enough effect; inconclusive = small, poorly fitted or top-dose-only effect; inactive = no such curve, though single readings can be large or run the other way. No potency is given beside an inconclusive call; the fits are too rough.
# Biological target: Pyruvate kinase PKM (Homo sapiens) (UniProt P14618)
# Test: qHTS Assay for Activators of Human Muscle isoform 2 Pyruvate Kinase; also: nearly all actives have a fitted effect of over 55% in size
# Conditions: purified PKM2, Kinase-Glo ATP luminescence; Potency: activation; activation: at 57.5 µM (top of the series), 0% is enzyme alone, no compound
# In short: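 ATP formation by purified human PK-M2, quantified via coupled luciferase luminescence after 1 h at room temperature with 0.1 mM ADP and 0.5 mM PEP final.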
# % is scaled to controls: 0 for no effect and ±100 for the full control effect; potency is read from the fitted curve at half-maximal effect; tags tell the direction and shape of the fitted curve.
# Sequence of UniProt P14618 (P14618 whole entry, looked up, canonical isoform): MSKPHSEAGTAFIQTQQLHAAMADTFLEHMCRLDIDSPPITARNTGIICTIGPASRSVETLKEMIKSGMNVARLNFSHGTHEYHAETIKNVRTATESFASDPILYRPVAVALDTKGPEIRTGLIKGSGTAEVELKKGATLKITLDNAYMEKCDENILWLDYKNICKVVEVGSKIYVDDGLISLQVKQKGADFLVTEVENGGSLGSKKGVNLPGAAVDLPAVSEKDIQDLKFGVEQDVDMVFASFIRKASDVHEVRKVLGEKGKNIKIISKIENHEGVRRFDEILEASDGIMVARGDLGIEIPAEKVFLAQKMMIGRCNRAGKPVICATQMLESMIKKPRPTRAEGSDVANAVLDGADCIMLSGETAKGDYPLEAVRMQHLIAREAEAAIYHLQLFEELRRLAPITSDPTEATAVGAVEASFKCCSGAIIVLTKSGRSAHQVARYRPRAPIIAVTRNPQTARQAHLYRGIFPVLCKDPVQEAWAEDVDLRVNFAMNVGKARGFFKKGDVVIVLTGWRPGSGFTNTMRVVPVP
Compound,Potency,activation
O=C(O)COc1ccc(/C=N/NC(=O)c2ccc(-c3csc(Nc4ccc(Cl)cc4)n3)cc2)cc1,"inconclusive [rising, full curve]",
CCC(=O)OCCNc1cc(Sc2nc3ccccc3[nH]2)c2nonc2c1[N+](=O)[O-],"inconclusive [rising, partial curve]",
COc1ccc(CNC(=O)c2ccc(NS(=O)(=O)c3c(C)noc3C)cc2)cc1,"inconclusive [rising, partial curve]",
CCC1CCCCN1CCCNC(=O)Cn1nc(-c2ccccc2)ccc1=O (configuration not stated),"inconclusive [rising, single point]",
Cc1c(C(=O)Nc2cccc(N(C)S(C)(=O)=O)c2)cccc1[N+](=O)[O-],"inconclusive [rising, single point]",
Cc1ccc(NC(=O)c2cc3cc(OC(F)(F)F)ccc3[nH]2)cc1,,inactive: 8.54%
O=C(NC(=S)Nc1ccccc1C(=O)O)c1cncc(Br)c1,,inactive: 1.34%
COc1cccc(Cn2nc(C(=O)O)c3ccccc3c2=O)c1,"inconclusive [rising, partial curve]",
CCOC(=O)c1ccc(CC(=O)c2ccc(O)c(O)c2O)o1,"inconclusive [rising, partial curve, poor fit]",
Cc1ccc(S(=O)(=O)N2CCN(C(=S)NCc3ccc4c(c3)OCO4)CC2)cc1,"inconclusive [rising, partial curve]",
Cc1nn(-c2ccccc2)nc1C(N)=O,"inconclusive [rising, single point]",
NC(=O)COC(=O)CCSc1ccc(Cl)cc1,"inconclusive [rising, single point]",
Cc1csc(NC(=O)C2CC(=O)N(Cc3ccco3)C2)n1 (configuration not stated),"inconclusive [rising, single point]",
CC(/C=C/c1ccccc1)=N\NC(=S)NC(C)C,,inactive: -1.44%
O=C(NCc1ccc2c(c1)OCO2)c1ccc(NS(=O)(=O)c2ccc3c(c2)OCCO3)cc1,active: 4.47 µM,
Cc1ccccc1-n1nc(C)c2c1N=C1C(Cl)=CC(Cl)=CN1C2c1ccc(C(=O)O)cc1 (configuration not stated),"inconclusive [rising, partial curve]",
O=C(Nc1ccc(Cl)cc1)c1csc(-c2ccccc2)n1,,inactive: 1.49%
COc1cc(C(=O)Nc2ccc3c(c2)OCCO3)ccc1OC(F)F,,inactive: -19.8%
Cc1cccc2cc(CN(Cc3ccco3)C(=O)c3ccncc3)c(=O)[nH]c12,"inconclusive [rising, partial curve, poor fit]",
Cc1cccc(NC(=O)CN2C(=O)N/C(=C/c3ccc(C)o3)C2=O)c1,"inconclusive [rising, full curve]",
Cc1ccc(S(=O)(=O)N2CCC(=O)N(CCOCc3ccc(Cl)cc3)CC2)cc1,"inconclusive [rising, single point]",
Cc1cc(NN)nc(NS(=O)(=O)c2ccc(Cl)cc2)n1,"inconclusive [rising, single point]",
Fc1ccccc1NC(=S)NCc1ccc2c(c1)OCO2,,inactive: 2.72%
COc1cc(C(=S)N2CCOCC2)cc(OC)c1OS(=O)(=O)c1ccc(Cl)cc1,,inactive: -0.226%

Compound,Potency,activation
COc1ccc(-c2nc3c(c4c2C[C@H](c2ccccc2)OC4)CN(C(=O)c2cc(I)ccc2F)CC3)c(C)c1,,"inactive: 3.71% [at 11.5 µM, 0% is enzyme alone, no compound]"
O=C1c2ccccc2C(=O)c2cc(S(=O)(=O)Nc3ccccc3)ccc21,"inconclusive [rising, partial curve]",
COc1ccc(S(=O)(=O)N2CN(Cc3ccco3)c3nc4ccccc4nc32)cc1,"inconclusive [rising, single point]",
COc1ccc(Br)cc1C(=O)Nc1cccc(NC(=O)c2ccco2)c1,,inactive: 1.71%
CCCn1c(N)c(C(=O)CSc2nc(C)cs2)c(=O)n(C)c1=O,active: 15.8 µM,
CCN1CC(CN(C)Cc2nc(-c3cccs3)no2)CC1=O (configuration not stated),"inconclusive [rising, single point]",
COc1cc(/C=N/NC(=O)C2c3ccccc3Oc3ccccc32)ccc1O,"inconclusive [rising, single point]",
Cc1cc2cc(CN(CCCN3CCOCC3)C(=O)NC3CCCCC3)c(=O)[nH]c2cc1C,,inactive: -1.29%
O=C(O)/C=C/C(=O)Nc1ccccc1-c1ccccc1NC(=O)/C=C/C(=O)O,"inconclusive [rising, single point]",
CCc1cccc(NS(=O)(=O)c2ccc3c(c2)CCC(=O)N3)c1,active: 2.82 µM,
O=C(COc1ccc(S(=O)(=O)N2CCCC2)cc1Cl)NCc1ccco1,"inconclusive [rising, partial curve]",
O=C(CSc1cccc2cccnc12)Nc1ccc(S(=O)(=O)N2CCOCC2)cc1,active: 25.1 µM,
COc1cc2c(cc1OC)N1C(=O)CC(OCC(=O)O)C3C4CC5(CCN5C(=O)C4=O)C2C31 (configuration not stated),"inconclusive [rising, full curve]",
O=C(OCC(=O)N1CCN(C(=O)c2ccco2)CC1)c1cc(-c2ccco2)nc2ccccc12,active: 15.8 µM,
O=C(NCCc1ccccc1)c1ccc(NC(=O)c2cccnc2)cc1,,inactive: -0.148%
CC(=O)Nc1ccc(SCC(=O)OCC(=O)NC(=O)NC2CCCC2)cc1,"inconclusive [rising, single point]",
CCOc1ccc(-n2nnc3c(=O)n(CC(=O)Nc4cc(C)on4)cnc32)cc1,active: 15.8 µM,
CCOCCCNC(=O)CCc1ccc(S(=O)(=O)Nc2ccc(C)cc2)cc1,"inconclusive [rising, single point]",
COc1ccc(C(=O)NCCn2cc(SCC(=O)NCc3ccco3)c3ccccc32)cc1,"inconclusive [rising, single point]",
COc1ccc(OC)c2c(C)c(C)[nH]c12,"inconclusive [rising, partial curve]",
CC(C)CCNC(=S)Nc1ccc([N+](=O)[O-])cc1,,inactive: 1.59%
COc1cnc(-c2ccccn2)nc1Sc1c(Cl)cccc1Cl,,inactive: -1.77%
O=S(=O)(NCc1ccc(F)cc1)c1ccc2c(c1)OCCO2,"inconclusive [rising, partial curve]",
Cc1ccccc1C(=O)Oc1ccccc1C(=O)N1CCOCC1,"inconclusive [rising, single point]",

Compound,Potency,activation
Cn1cnnc1SCC(=O)Nc1ccc2nc(SCc3ccccc3F)sc2c1,,inactive: -8.83%
CCCCNC(=O)COC(=O)c1ccc(Cl)c(S(=O)(=O)N2CCCC2)c1,"inconclusive [rising, partial curve]",
CCn1c(COc2cccc(C)c2)nc2ccccc21,,inactive: -5.28%
O=C1OCCC1Sc1nc2ccccc2c(=O)n1Cc1ccc(F)cc1 (configuration not stated),,inactive: -3.68%
O=c1c2sccc2nc(SCc2cc(=O)n3ccccc3n2)n1Cc1ccccn1,"inconclusive [rising, single point]",
Cc1ccccc1-n1ncc(C(C)NS(=O)(=O)c2sccc2C)c1C (configuration not stated),,inactive: -1.13%
Cc1cc(NC(=O)c2ccc(Cl)c([N+](=O)[O-])c2)no1,"inconclusive [rising, single point]",
O=C1/C(=C/c2ccc(N3CCCC3)cc2)NC(=S)N1C1CC1,,inactive: 4.38%
O=c1c2nnn(Cc3ccc(Cl)cc3)c2ncn1Cc1ccc(F)cc1,"inconclusive [rising, partial curve]",
CC[C@@]1(c2ccccc2C)C(=O)N(C(=O)OC)N1C(=O)OC,"inconclusive [rising, single point]",
CCN(CC)c1ccc(/C=C2\SC(=O)N(C(C)C)C2=O)o1,active: 12.6 µM,
CCCn1c(NC(=O)c2ccco2)nc2ccccc21,"inconclusive [rising, single point]",
O=C1N/C(=C/c2ccc(N3CCOCC3)o2)C(=O)N1c1ccccc1,"inconclusive [rising, full curve]",
CN(Cc1ccccc1)S(=O)(=O)c1ccc2c(c1)n(C)c(=O)n2C,"inconclusive [rising, partial curve]",
CCCOC(=O)c1ccc(NC(=O)C2C3C=CC(O3)C2C(=O)O)cc1 (configuration not stated),,inactive: 7.72%
CCN(CC)S(=O)(=O)c1cccc(NC(=O)C2SC(=Nc3ccc(C)cc3C)C(C(=O)NCC3CCCO3)=C2N)c1 (configuration not stated),,inactive: 1.34%
Cc1ccc(/C=C/C(=O)Nc2ccc(Oc3ccccc3)cc2)o1,"inconclusive [rising, partial curve]",
c1ccc(-c2cc3c(ccc4nonc43)nn2)cc1,,inactive: -3.04%
COC(=O)C1=C(C)N(c2ccc(C)c(C)c2)/C(=C/c2ccco2)C1=O,"inconclusive [rising, partial curve, poor fit]",
O=C(CSc1nccc(=O)[nH]1)N1N=C2/C(=C/c3ccco3)CCCC2C1c1ccco1 (configuration not stated),"inconclusive [rising, single point]",
COc1ccc(NC(=O)c2[nH]c(C)c(C(C)=O)c2C)cc1S(=O)(=O)N1CCOCC1,"inconclusive [rising, partial curve]",
COc1ccccc1C(CNc1ccc(S(=O)(=O)N2CCCC2)cc1[N+](=O)[O-])N(C)C (configuration not stated),,inactive: 0.204%
O=C(CN1CCN(S(=O)(=O)c2ccc(F)cc2)CC1)NC1CC1,"inconclusive [rising, single point]",
O=C(Oc1ccc2ccc(O)cc2c1)c1ccccc1Cl,"inconclusive [rising, single point]",
